This is one part of the list. Each Rep nickase domain was tested in vitro on the same pool of single strands (1 h at 37 °C, 3 µM enzyme); the outer parts of the 90-letter strands are left off. The score is log2 (uncut reads / reads without enzyme); the lower, the more was cut; hits are not called. Counts are relative to all reads; where an enzyme cuts many sequences, the uncut ones exceed 0.
Columns and labels:
Test in all cases: uncleaved DNA left, log2 of reads against the no-enzyme library (log2 ratio); higher = less cleavage (more negative = more Rep cleavage of the k-mer); sequences stand for … in CTCGTCCG…ACCGGAGA
[1] = system: T1, Rep nickase domain of Muscovy duck circovirus
T1 sequence (Rep 1-111, printed without the tag): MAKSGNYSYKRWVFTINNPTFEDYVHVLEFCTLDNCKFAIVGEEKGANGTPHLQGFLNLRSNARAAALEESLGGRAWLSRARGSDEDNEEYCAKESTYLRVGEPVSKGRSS
Description: (§1)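 A pool of 90-nt single-stranded DNAs with seven random bases just before the constant AC of the nick site (name = the seven bases) was cut by 3 µM recombinant His6-SUMO-tagged Rep nickase domain (300 nM DNA, 50 mM HEPES pH 8.0, 50 mM NaCl, 1 mM MnCl2, 1 h, 37 °C, three replicates). Uncut DNA was amplified and sequenced.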

[2] = system: T2, Rep nickase domain of banana bunchy top virus
T2 sequence (Rep 1-94, printed without the tag): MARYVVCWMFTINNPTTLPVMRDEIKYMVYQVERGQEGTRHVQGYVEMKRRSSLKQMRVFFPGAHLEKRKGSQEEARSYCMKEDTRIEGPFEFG
Description: as §1

[3] = system: T3, Rep nickase domain of cabbage leaf curl virus
T3 sequence (Rep 1-116, printed without the tag): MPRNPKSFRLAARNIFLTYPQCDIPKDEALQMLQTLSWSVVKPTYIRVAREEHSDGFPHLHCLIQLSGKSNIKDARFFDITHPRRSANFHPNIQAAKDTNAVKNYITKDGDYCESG
Description: as §1

[4] = system: T4, Rep nickase domain of chickpea chlorotic dwarf virus
T4 sequence (Rep 1-124, printed without the tag): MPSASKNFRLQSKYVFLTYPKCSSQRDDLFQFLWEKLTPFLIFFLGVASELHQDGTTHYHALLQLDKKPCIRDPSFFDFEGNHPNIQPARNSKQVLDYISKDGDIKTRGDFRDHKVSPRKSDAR
Description: as §1

[5] = system: T5, Rep nickase domain of faba bean necrotic yellows virus
T5 sequence (Rep 1-98, printed without the tag): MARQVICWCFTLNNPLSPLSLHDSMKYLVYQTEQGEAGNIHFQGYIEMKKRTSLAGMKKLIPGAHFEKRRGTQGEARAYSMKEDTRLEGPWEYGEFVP
Description: as §1

[6] = system: T6, Rep nickase domain of maize striate mosaic virus
T6 sequence (Rep 1-117, printed without the tag): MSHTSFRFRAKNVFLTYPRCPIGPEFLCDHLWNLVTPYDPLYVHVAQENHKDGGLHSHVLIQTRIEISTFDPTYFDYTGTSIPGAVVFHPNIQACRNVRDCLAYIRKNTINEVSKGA
Description: as §1

[7] = system: T7, Rep nickase domain of porcine circovirus 2
T7 sequence (Rep 2-116, printed without the tag): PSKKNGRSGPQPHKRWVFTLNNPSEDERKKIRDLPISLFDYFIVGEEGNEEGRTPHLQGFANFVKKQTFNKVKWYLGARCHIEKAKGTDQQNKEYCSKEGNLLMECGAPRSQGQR
Description: as §1

[8] = system: T8, Rep nickase domain of tomato golden mosaic virus
T8 sequence (Rep 1-124, printed without the tag): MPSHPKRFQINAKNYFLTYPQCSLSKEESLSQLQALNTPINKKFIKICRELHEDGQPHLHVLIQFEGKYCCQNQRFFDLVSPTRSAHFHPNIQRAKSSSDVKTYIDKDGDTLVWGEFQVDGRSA
Description: as §1

[9] = system: T9, Rep nickase domain of tomato yellow leaf curl virus
T9 sequence (Rep 1-136, printed without the tag): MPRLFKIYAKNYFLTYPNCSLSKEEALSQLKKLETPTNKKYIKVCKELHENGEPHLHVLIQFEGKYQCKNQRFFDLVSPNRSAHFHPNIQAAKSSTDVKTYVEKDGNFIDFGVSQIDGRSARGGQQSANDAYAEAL
Description: as §1

[10] = system: T10, Rep nickase domain of wheat dwarf virus
T10 sequence (Rep 1-137, printed without the tag): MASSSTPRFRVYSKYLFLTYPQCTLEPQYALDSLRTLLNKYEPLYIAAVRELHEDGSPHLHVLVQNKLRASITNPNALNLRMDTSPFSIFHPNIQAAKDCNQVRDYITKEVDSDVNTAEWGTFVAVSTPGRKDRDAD
Description: as §1

Sequence	uncleaved DNA left (log2) [1]	uncleaved DNA left (log2) [2]	uncleaved DNA left (log2) [3]	uncleaved DNA left (log2) [4]	uncleaved DNA left (log2) [5]	uncleaved DNA left (log2) [6]	uncleaved DNA left (log2) [7]	uncleaved DNA left (log2) [8]	uncleaved DNA left (log2) [9]	uncleaved DNA left (log2) [10]
CCCTACC	-0.204	-0.0201	-0.248	-2.29	-0.0139	-0.684	-0.839	-0.103	-0.036	-0.133
GAGTGAA	0.208	0.123	0.377	0.708	0.0454	1.23	-2.31	0.132	0.106	0.239
CGCGTTT	-0.29	-0.297	-0.304	-1.24	-0.0585	-0.639	-0.215	-0.155	-0.0774	-0.136
GGTGACC	-0.0738	-0.00826	0.591	1.63	0.00814	1.93	0.124	0.0882	0.071	0.119
CAAGATA	-0.123	-0.162	-0.233	-1.77	0.133	-0.112	0.00952	-0.0867	-0.153	-0.132
GCTACAT	0.072	0.107	0.701	1.49	-0.0812	1.87	0.156	0.0508	0.0913	0.139
GGTTCAC	0.0768	0.0878	0.369	1.06	0.119	1.69	0.101	0.0395	0.177	0.162
TCGACAC	-0.0336	-0.027	0.155	0.417	-0.0152	0.42	0.0351	-0.0384	0.0604	0.0554
TGGTGTC	0.000456	-0.165	0.213	0.462	-0.0946	0.66	0.0499	-0.118	-0.148	-0.0958
GTGCTGC	-0.0365	-0.0399	0.179	0.545	-0.081	1.25	0.0472	0.108	-0.00859	-0.00534
GACCGGG	0.125	-0.119	0.612	0.98	0.116	1.19	0.251	0.125	0.0563	0.071
AAAGTAT	0.221	0.15	0.215	1.12	0.121	1.68	0.235	0.235	0.027	0.17
GGTCTTG	-0.0251	0.135	0.202	0.268	0.0263	0.782	0.0711	0.0437	0.0439	0.112
GTATGTC	-0.0701	0.0512	0.295	0.722	0.0411	1.28	0.0855	-0.0299	0.0136	0.091
GCAGTGG	0.0151	-0.0128	-0.294	-0.149	0.207	-0.677	0.17	0.102	0.0501	-0.0497

— the supplement of paper PMC7826260
